Laboratory results published in PubChem BioAssay AID485344 (National Center for Advancing Translational Sciences (NCATS), 2010).
In all, about 340,000 compounds went through this assay and about 6,900 (2%) were called active. Cut-off read from the data, not from the text of the source: active = inhibition above about 30%; inactive = below that, where a call was filed. The entries are a selection whose mix differs from that of the whole data set. Entries without a call were filed so in the source.
Note: 0% is about no effect.

These compounds were tested against D(2) dopamine receptor (Homo sapiens) (UniProt P14416) (assay: HTS Assay for Allosteric Antagonists of the Human D2 Dopamine Receptor: Primary Screen for Antagonists). Details: HEK293 TREx D2 cells, calcium flux, dopamine EC80; at 10 µM; stronger effect = higher value.
Chain of UniProt P14416 (P14416 whole entry, looked up): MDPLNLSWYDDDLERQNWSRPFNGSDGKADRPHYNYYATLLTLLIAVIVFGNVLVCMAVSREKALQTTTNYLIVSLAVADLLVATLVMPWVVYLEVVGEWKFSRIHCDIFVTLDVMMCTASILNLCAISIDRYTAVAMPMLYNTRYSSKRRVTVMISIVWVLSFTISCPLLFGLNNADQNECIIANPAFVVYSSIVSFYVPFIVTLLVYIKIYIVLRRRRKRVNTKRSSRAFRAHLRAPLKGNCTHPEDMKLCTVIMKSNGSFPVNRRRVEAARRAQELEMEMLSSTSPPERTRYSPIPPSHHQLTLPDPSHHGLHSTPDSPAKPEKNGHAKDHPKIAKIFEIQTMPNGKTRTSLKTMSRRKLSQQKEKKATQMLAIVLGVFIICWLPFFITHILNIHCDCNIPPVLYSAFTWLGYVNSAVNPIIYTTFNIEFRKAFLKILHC
How it was run: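 Antagonism is scored as inhibition of an EC80 dopamine-evoked calcium signal in a force-coupled, tetracycline-inducible HEK293 T-REx D2 line, with compound present 180 s before agonist.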
CC(=O)N1CCc2c(sc3c2c(=O)n(CCc2ccccc2)c(=O)n3CC(=O)Nc2ccc(C)c(F)c2)C1 gave an inhibition of 0.106%. In the case of COc1cccc2c1Oc1ncccc1N(c1ccc(C(=O)NCc3ccccc3Cl)s1)C2, the inhibition is reported as 5.43%. COc1ccc(N2CCN(c3ncnc4onc(-c5ccc(F)cc5)c34)CC2)cc1 was tested, and the inhibition was -9.77%. With Cc1ccc(CCNC(=O)c2ccc3c(c2)N(Cc2ccccc2)C(=O)c2ccccc2S3=O)cc1 (stereo not given) the inhibition was 14.3%. In the case of COc1ccc(NC(=O)Cn2c(=O)n(CCCC(=O)NCCc3ccc(C)cc3)c(=O)c3ccccc32)cc1Cl, the inhibition is reported as -5.66%. Compound Cc1cccc(NC(=O)c2ccc(F)c(S(=O)(=O)N3CCC4(CC3)OCCO4)c2)c1 has an inhibition of -18.3%. In the case of COc1cc(OC)c(NC(=O)N2CCc3cc(OC)c(OC)cc3C2CC(=O)O)cc1Cl (stereo not given), the inhibition is reported as -11.4%. In the case of CCN(CC)CCNC(=O)c1cc2c(=O)n(C)c3ccccc3c2n1C, the inhibition is reported as active: 37%. For COc1ccc(C(=O)Nc2nnc(C)s2)cc1, the inhibition was 1.08%. Compound CC(C)Cn1c(=O)c2ccccc2n2c(CCC(=O)N3CCN(c4ccccc4)CC3)nnc12 has an inhibition of -19.8%. Compound CCCCOC(=O)CSc1nnc(-c2ccc(C)cc2)o1 has an inhibition of -4.33%. CC(C)c1ccc(C2c3c(-c4ccccc4O)n[nH]c3C(=O)N2Cc2ccncc2)cc1 (stereo not given) gave an inhibition of -18.3%. In the case of COc1cc(OC)cc(C(=O)Nc2ccc3nc(Nc4cccc(C(F)(F)F)c4)cc(C)c3c2)c1, the inhibition is reported as -5.94%. For CCN(CC)C(=O)C1CCN(c2nnc(C)c3c(C)n(-c4ccc(Cl)cc4)nc23)CC1, the inhibition was -10.3%. C#CCn1c(C2CC(=O)N(c3ccc(OCC)cc3)C2)nc2ccccc21 (stereo not given) was tested, and the inhibition was -7.18%. In the case of Cc1ccc(C)c(N2CCN(CCCNC(=O)Cn3cc4c(n3)CCCCC4)CC2)c1, the inhibition is reported as active: 65%. CCCOc1ccc(CNC(=O)C2CCCN(c3nc4c(C)cc(C)cc4s3)C2)cc1 (stereo not given) gave an inhibition of 1.61%. O=C(NCc1ccc(F)cc1)c1cnc(N2CCCCC2)c2ccccc12 gave an inhibition of 10.1%. In the case of COc1ccc(NC(=O)Cn2c(=O)n(-c3cccc(C(F)(F)F)c3)c(=O)c3sccc32)cc1, the inhibition is reported as -3.24%. Cc1[nH]c2ccccc2c1C1(O)C(=O)N(Cc2ccccc2Cl)c2ccccc21 (stereo not given) showed an inhibition of 14%. Work on CCC1CN(C(=O)Nc2ccc(Br)cc2F)c2ccccc2S1 (stereo not given) yielded an inhibition of 8.42%. Compound CCOc1ccc(OCC)c(NC(=O)CCc2nc3cccnc3n2-c2ccccc2)c1 has an inhibition of -2.02%. Work on COc1ccccc1N1CCN(C(=O)CSc2n[nH]c(-c3ccccc3Cl)n2)CC1 yielded an inhibition of -6.6%. Work on O=C(NCC(c1ccc(Cl)cc1)N1CCCCC1)c1ccccc1F (stereo not given) yielded an inhibition of 5.72%. Compound COC(=O)C(NC(=O)CCc1c(C)nc2c(c(C)nn2-c2ccccc2)c1C)C(C)C (stereo not given) has an inhibition of -8.96%. CCc1ccc(S(=O)(=O)Nc2ccc(-c3ccc(N4CCCC4)nn3)cc2)cc1 was tested, and the inhibition was -15.5%. Compound Cc1ccccc1NC(=O)[C@H](CSCc1ccccc1)N1Cc2ccccc2C1=O has an inhibition of 13.9%. Cc1nn(-c2ccc(N3CCCC3)nn2)c(C)c1CCC(=O)N1CCN(c2ccccc2)CC1 showed an inhibition of 5.35%. CCN(Cc1ccccc1)C(=O)c1nn(-c2ccc(OC)cc2)c(=O)c2c1c1ccccc1n2C showed an inhibition of -6.31%. COc1ccc(CN2CCC(n3nccc3NC(=O)c3ccc4c(c3)OCO4)CC2)cc1C was tested, and the inhibition was active: 44.9%. Work on COC(=O)c1ccc(C(=O)OC)c(NC(=O)c2cnn3c(C(F)F)cc(-c4ccccc4)nc23)c1 yielded an inhibition of -14.6%. In the case of CC(CCN1CCN(c2ccccn2)CC1)c1ccccc1 (stereo not given), the inhibition is reported as active: 62.7%. In the case of COc1ccc(CC(C)N2CCN(Cc3ccccc3)CC2)c(OC)c1 (stereo not given), the inhibition is reported as active: 83%. In the case of Cc1ccccc1NC(=O)Cn1c(=O)n(Cc2ccccc2)c(=O)c2sc3ccccc3c21, the inhibition is reported as 9.43%. CCCSc1nnc2[nH]c(=O)cc(C)n12 showed an inhibition of -3.36%. O=C(Nc1nnc(S(=O)(=O)Nc2ccccc2)s1)C1CCCCC1 gave an inhibition of 12.7%. In the case of CCOC(=O)Cn1c(=O)n(CC2CCCO2)c2nc(-c3ccc(C(C)C)cc3)nc(C(N)=O)c21 (stereo not given), the inhibition is reported as -15.9%. Compound COc1cc2c(-c3cc(Br)ccc3O)nc3c(c(C)nn3-c3ccccc3)c2cc1OC has an inhibition of -0.245%. For O=C(NCc1ccc2c(c1)OCO2)C1CCCN1C(=O)Nc1ccccc1 (stereo not given), the inhibition was active: 66%. Work on Cc1ccccc1N(C)S(=O)(=O)c1nnc(NC(=O)C(C)C)s1 yielded an inhibition of -2.04%. COc1ccc(NCC(=O)N/N=C/c2c(C)nn(Cc3ccccc3)c2Cl)cc1 was tested, and the inhibition was active: 31.3%. For CCCN(c1ccc(C(C)C)cc1)S(=O)(=O)c1ccc2c(c1)oc(=O)n2CC(=O)OCC, the inhibition was 13.1%. COc1cccc(Cn2c(CNS(=O)(=O)c3ccc(C(C)(C)C)cc3)nc3cccnc32)c1 was tested, and the inhibition was 24.1%. COc1ccc(-n2c(=O)c3ccccc3n(Cc3cccc(C)c3)c2=O)cc1 gave an inhibition of -9.2%. COc1ccc(-c2nc(CNC(=O)Nc3ccccc3)c(C)o2)cc1 gave an inhibition of -12.4%. Compound CCC(C)NC(=O)Cn1c(=O)n(-c2ccc(C)c(C)c2)c(=O)c2c3c(sc21)CCCCC3 (stereo not given) has an inhibition of -7.54%. In the case of COc1ccc(OC)c(NC(=O)c2cc(S(=O)(=O)NCCc3ccc(Cl)cc3)ccc2F)c1, the inhibition is reported as 8.67%. CCOc1ccc(OCC)c(NC(=O)c2ccc(-c3ccccc3)s2)c1 was tested, and the inhibition was -2.01%. Cc1nc2nc(SCC(=O)NC3CCC(C)CC3)nn2c(C)c1Cc1ccccc1 (stereo not given) gave an inhibition of 6.69%. Work on CCCCc1nn2c(=O)cc(COC(=O)C3CCCCC3)nc2s1 yielded an inhibition of -0.864%. Work on COC(=O)c1ccc(-c2nc3cc(NC(C)=O)ccc3o2)cc1 yielded an inhibition of 6.66%. Work on CCOc1ccc(CCNC(=O)c2sc3ncccc3c2-n2cccc2)cc1OCC yielded an inhibition of -14.9%. Work on Cc1cccc(NC(=O)C(=O)NCC(c2cccnc2)N2CCc3ccccc3C2)c1C (stereo not given) yielded an inhibition of 9.66%. CCOc1ccc(NC(=O)c2ccc(F)c(S(=O)(=O)N(CC)Cc3ccccc3)c2)cc1 gave an inhibition of 6.09%. CCOC(=O)c1scc(-c2ccc(C)cc2)c1S(=O)(=O)N1CCN(c2ccccc2F)CC1 showed an inhibition of -10.4%. In the case of O=C(CCC1N=C2c3ccccc3N=C(SCc3cccc(F)c3)N2C1=O)NCc1cccs1 (stereo not given), the inhibition is reported as 11.3%. Cc1ccc(Cl)cc1N1CCN(C(=O)CCNS(=O)(=O)c2ccc3c(c2)CCN3C(=O)C2CC2)CC1 gave an inhibition of -2.85%. For Cc1ccc(NC(=O)NCc2cccn2Cc2ccccc2)c(C)c1, the inhibition was 8.66%. CCCCCSc1ncnc2c1sc1nc(N3CCOCC3)c3c(c12)CCCC3 gave an inhibition of 1.92%. With CCOc1ccc(N2CC(c3nc4ccccc4n3Cc3ccccc3F)CC2=O)cc1 (stereo not given) the inhibition was -2.78%. COc1ccc(-c2nnc(SCC(=O)NC3CCCC3)nc2-c2ccc(OC)c(OC)c2)cc1OC was tested, and the inhibition was 23.6%. COc1cccc(OC)c1C(=O)Nc1cccc(-c2cn3ccsc3n2)c1 gave an inhibition of -4.76%. Compound O=C(NCc1ccccc1)C1CCN(S(=O)(=O)c2ccc3c(c2)CCCN3C(=O)C2CCC2)CC1 has an inhibition of 10%. Cc1ccc(N2CC(NC(=O)c3ccc(S(=O)(=O)N4CCCC4)cc3)CC2=O)cc1C (stereo not given) gave an inhibition of 22.9%. Cc1cc(C)cc(-n2ccn(CC(=O)Nc3cc(C)ccc3C)c(=O)c2=O)c1 showed an inhibition of -4.31%. CCn1cc(C(=O)NCCCN2CCCC(C)C2)c(=O)c2cc(S(=O)(=O)N(C)C3CCCCC3)ccc21 (stereo not given) gave an inhibition of -8.66%. Work on CCOC(=O)c1c(S(=O)(=O)N2CCCC(C(=O)NCc3cccc(OC)c3)C2)c(C)n(C)c1C (stereo not given) yielded an inhibition of -9.55%. Work on Cc1ccc(-c2cn(-c3cccc(Cl)c3)c(S(=O)(=O)CC(=O)Nc3cccc(C)c3)n2)cc1 yielded an inhibition of -5.74%. Cc1cccc(CS(=O)(=O)Cc2ccc(C(=O)NCCc3ccccc3)o2)c1 showed an inhibition of 24.5%. COc1ccc(CCNc2nc(-c3ccc(OC)c(OC)c3)cc(C(F)(F)F)n2)cc1OC showed an inhibition of -5.42%. For OC(CNCC1COc2ccccc2O1)COc1ccccc1F (stereo not given), the inhibition was active: 95.6%. In the case of CCc1ccccc1NC(=O)CN1C(=O)c2ccccc2Sc2ncccc21, the inhibition is reported as 2.75%. Compound NC(=O)C1(N2CCCCC2)CCN(C(=O)Nc2ccc(F)cc2)CC1 has an inhibition of -10.1%. For CCCNC(=O)c1ccc2c(c1)sc1nc(-c3ccc(C)cc3)cn12, the inhibition was -2.6%. O=C(CNC(=O)c1ccccc1)OCc1cc(=O)n2ccsc2n1 gave an inhibition of 3.55%. Work on Cc1ccc(C)c(N2CCN(C(=O)C3CCCN(Cc4nc(-c5cccc(Cl)c5)oc4C)C3)CC2)c1 (stereo not given) yielded an inhibition of 2.23%. With CC1CCn2c(nc3cc(C(=O)NCc4ccccc4)ccc32)C1 (stereo not given) the inhibition was -6.49%. Compound CC(=O)c1ccc(NC(=O)c2cc(S(=O)(=O)N3CCCCCC3)cn2C)cc1 has an inhibition of -4.15%. Cc1ccc(NC(=O)CCCc2nnc3n(C)c(=O)c4sccc4n23)cc1F showed an inhibition of -14.1%. COc1ccc(-c2nc3c(c(SCC(=O)Nc4ccccc4F)n2)Cc2cc(C)ccc2O3)cc1 was tested, and the inhibition was -6.9%. In the case of O=C(NCc1ccc(F)cc1)c1ccc2nc(N3CCCCC3)sc2c1, the inhibition is reported as -6.74%. With Cc1ccc(NC(=O)CCC(=O)N2Cc3ccccc3Oc3ncccc32)cc1F the inhibition was 5.36%. Cc1cccc(Cn2c(=O)n(CCC(=O)NCCc3ccc(Cl)cc3)c(=O)c3sccc32)c1 was tested, and the inhibition was -25.6%. With CCOc1ccc(NC(=O)c2ccc3c(c2)CCN3S(=O)(=O)c2ccc(Cl)cc2)cc1 the inhibition was 0.178%. In the case of Cc1cc(-c2ccc(C)c(S(=O)(=O)NCC3CCN(Cc4ccc(F)cc4)CC3)c2)on1, the inhibition is reported as 15.1%. With O=C(NCC(c1ccc2c(c1)OCO2)N1CCOCC1)C(=O)Nc1cccc(Cl)c1 (stereo not given) the inhibition was -15.4%. In the case of COc1ccc(OC)c(CNC(=O)c2nn(C)c3c2CSc2ccccc2-3)c1, the inhibition is reported as 5.8%. Fc1cccc(Cl)c1Cn1c(-c2cccs2)nc2ccccc21 was tested, and the inhibition was -3.12%. Work on CCCn1cc(S(=O)(=O)c2ccc(CC)cc2)c(=O)c2cc(F)c(N(CC)CC)cc21 yielded an inhibition of 8.11%. For Cn1c(=O)c2c(-c3ccccc3)n3c(c2n(C)c1=O)C(c1ccco1)Nc1ccccc1-3 (stereo not given), the inhibition was -7.62%. COc1ccc(Cl)cc1CNCCSc1nnnn1C showed an inhibition of -14.2%. COc1ccc(C(=O)Nc2nc3c(s2)CCCC3)cc1Cl showed an inhibition of 24.3%. In the case of CCOc1ccc(CNC(=O)c2cc(=O)[nH]c3ccc(S(=O)(=O)N4CCCC4)cc23)cc1, the inhibition is reported as -3.52%. In the case of Cc1cccc(N2CCN(C(=O)c3ccc4c(c3)N(Cc3cccc(Cl)c3)C(=O)c3ccccc3S4=O)CC2C)c1 (stereo not given), the inhibition is reported as 8.16%. Compound Cc1cc(C)cc(NC(=O)CCCn2c3ccccc3c(=O)c3ccccc32)c1 has an inhibition of 5.22%.
